Laboratory results: PubChem BioAssay AID1347165 (National Center for Advancing Translational Sciences (NCATS), 2019)
Screen size: about 220,000 compounds; about 5,700 (2.6%) were called active. The shares of active, inactive and inconclusive entries below differ from those in the screen. The call rests on the fitted dose curve; in most records, active means well fitted inhibition curve with a large enough effect; inconclusive means small, poorly fitted or top-dose-only effect; inactive means no such curve, though single readings can be large or run the other way. A potency beside an inconclusive call is a rough fit, not a confirmed value.

Biological target: Lysine-specific demethylase 5B (Homo sapiens) (UniProt Q9UGL1)
UniProt Q9UGL1, sequence (Q9UGL1 whole entry, looked up): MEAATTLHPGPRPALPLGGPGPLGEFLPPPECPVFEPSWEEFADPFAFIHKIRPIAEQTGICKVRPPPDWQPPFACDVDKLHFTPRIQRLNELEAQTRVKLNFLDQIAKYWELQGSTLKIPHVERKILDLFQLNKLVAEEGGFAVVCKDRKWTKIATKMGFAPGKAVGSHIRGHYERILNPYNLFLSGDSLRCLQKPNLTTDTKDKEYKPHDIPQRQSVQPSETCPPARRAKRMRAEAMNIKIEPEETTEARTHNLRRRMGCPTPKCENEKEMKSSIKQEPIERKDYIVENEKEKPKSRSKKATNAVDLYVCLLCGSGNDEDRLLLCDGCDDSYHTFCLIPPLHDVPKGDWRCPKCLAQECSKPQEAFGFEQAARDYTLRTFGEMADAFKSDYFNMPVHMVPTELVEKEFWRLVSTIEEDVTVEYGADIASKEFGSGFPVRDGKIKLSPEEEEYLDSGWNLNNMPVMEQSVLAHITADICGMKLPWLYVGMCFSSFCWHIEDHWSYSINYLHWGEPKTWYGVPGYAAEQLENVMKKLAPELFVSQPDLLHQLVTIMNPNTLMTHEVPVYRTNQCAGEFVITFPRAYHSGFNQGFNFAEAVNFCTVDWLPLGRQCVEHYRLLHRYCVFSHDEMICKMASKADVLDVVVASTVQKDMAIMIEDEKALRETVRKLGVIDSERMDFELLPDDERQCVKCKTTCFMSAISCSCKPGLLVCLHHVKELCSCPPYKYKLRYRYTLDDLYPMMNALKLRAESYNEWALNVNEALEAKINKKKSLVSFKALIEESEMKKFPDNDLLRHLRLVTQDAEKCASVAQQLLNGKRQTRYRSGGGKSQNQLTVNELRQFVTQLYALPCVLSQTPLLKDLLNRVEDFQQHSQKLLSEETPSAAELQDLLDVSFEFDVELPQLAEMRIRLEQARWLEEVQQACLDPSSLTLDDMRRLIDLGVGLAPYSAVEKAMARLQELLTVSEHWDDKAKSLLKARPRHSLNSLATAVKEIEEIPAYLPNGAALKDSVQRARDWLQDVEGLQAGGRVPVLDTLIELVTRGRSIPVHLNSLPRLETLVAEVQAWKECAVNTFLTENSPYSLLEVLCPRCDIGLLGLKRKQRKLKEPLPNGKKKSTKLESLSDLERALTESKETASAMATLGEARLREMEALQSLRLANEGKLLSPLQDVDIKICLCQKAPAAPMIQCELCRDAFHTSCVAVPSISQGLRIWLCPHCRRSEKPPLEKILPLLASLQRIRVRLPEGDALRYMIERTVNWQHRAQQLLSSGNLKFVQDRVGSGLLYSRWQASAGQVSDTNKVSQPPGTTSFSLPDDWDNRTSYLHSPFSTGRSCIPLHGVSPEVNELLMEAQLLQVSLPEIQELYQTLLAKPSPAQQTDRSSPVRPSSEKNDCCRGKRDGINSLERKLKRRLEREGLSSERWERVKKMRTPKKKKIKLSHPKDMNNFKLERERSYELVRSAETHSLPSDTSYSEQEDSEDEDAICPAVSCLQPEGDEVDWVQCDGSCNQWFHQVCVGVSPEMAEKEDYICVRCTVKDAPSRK
Assay: Primary screen for KDM5B Histone Demethylases FDH-coupled qHTS; further: nearly all actives have a fitted effect of over 70% in size; on activity change, negative = inhibition: 0% is about no effect
Conditions: FDH-coupled NADH fluorescence (FDH is formaldehyde dehydrogenase); activity change, negative = inhibition: at 57.7 µM (top of the series) unless noted
Summary of the method: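 Measured: NADH fluorescence change, 30 min, RT. System: KDM5BΔAP 200 nM final, H3K4me3 peptide, α-KG, Fe(II), ascorbate, NAD⁺ plus FDH, pH 7.5 HEPES. Compounds: titrated, 10 min pre-incubation with enzyme.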
Potency means the concentration at half of the fitted maximal effect; tags describe the fitted curve by direction and shape.

Question: Which “activity change, negative = inhibition” value does the source give for `O=C(c1cccc(Cl)c1)N1CCC2(CC1)N=C(c1ccc(Br)cc1)NO2` here?
Answer: Its value is inactive: 13%.

Question: For `COc1ccc2c(c1)CCN=C2C[C@H]1CN(C(=O)C2CC2)CC[C@H]1CC(=O)O`, which Potency is on record?
Answer: The Potency was inconclusive: 35.5 µM [inhibitor, partial curve, poor fit].

Question: With `CN1CCN(c2ccc(-c3cc4c(ccn4C)c(C(=O)NCc4cccnc4)n3)cc2)CC1` as the molecule, how does the Potency read?
Answer: The Potency was inconclusive: 35.5 µM [inhibitor, partial curve, poor fit].

Question: How did the Potency turn out when `Cc1cc(C)c2c(N)c(C(=O)NN)sc2n1` was run?
Answer: The Potency was inconclusive: 25.1 µM [inhibitor, partial curve, poor fit].

Question: With `N#Cc1ccc(C(=O)Nc2ccc3c(c2)N(C2CCCC2)C(=O)c2ccccc2S3)cc1` as the molecule, how does the Potency read?
Answer: Its Potency is inconclusive: 15.8 µM [inhibitor, partial curve, poor fit].

Question: For `Clc1ccc2[nH]c3c(c2c1)CCCC3`, which “activity change, negative = inhibition” value is on record?
Answer: Its value is inactive: -23.8%.

Question: With `COc1cc(NC(=O)c2oc3c(c2C)-c2nn(Cc4cccc(Cl)c4)cc2CC3)cc(OC)c1` as the molecule, how does the Potency read?
Answer: The Potency was inconclusive: 35.5 µM [inhibitor, partial curve, poor fit].

Question: `O=C(CCCOc1ccc(Cl)cc1Cl)OCC(=O)c1ccccc1` was tested. Which “activity change, negative = inhibition” value did it give?
Answer: The value was inactive: -21.9%.

Question: With `O=C(Nc1ccc(OC(F)(F)F)cc1)C1CCN(S(=O)(=O)c2cccs2)CC1` as the molecule, how does the Potency read?
Answer: Its Potency is inconclusive: 17.8 µM [inhibitor, partial curve, poor fit].

Question: With `CCC(C)NC(=O)c1ccc(-c2cccc(C#N)c2)o1` (centres undefined) as the molecule, how does the Potency read?
Answer: Its Potency is active: 25.1 µM.

Question: With `COCc1nc2nccc(-c3ccc4c(c3)OCCCO4)n2n1` as the molecule, how does the Potency read?
Answer: The Potency was active: 17.8 µM.

Question: Which Potency does the source give for `CC1=CC(=O)c2ccc3c4c(ccc1c24)CC3` here?
Answer: The Potency was inconclusive: 14.1 µM [inhibitor, partial curve, poor fit].

Question: With `CCCCn1nnnc1CN1CCCC1c1ccc2c(c1)OCCO2` (centres undefined) as the molecule, how does the “activity change, negative = inhibition” value read?
Answer: The value was inactive: 7.54%.

Question: `COc1cc(NC(=O)COCc2cc(-c3ccc4c(c3)OCO4)on2)cc(OC)c1` was tested. Which Potency did it give?
Answer: Its Potency is inconclusive: 35.5 µM [inhibitor, partial curve, poor fit].

Question: `Cc1cccc(CN2CCC(CNC(=O)Nc3cn(CC(C)C)c(=O)c4ccccc34)CC2)c1` was tested. Which Potency did it give?
Answer: The Potency was inconclusive: 25.1 µM [inhibitor, partial curve, poor fit].

Question: Which Potency does the source give for `COCCn1cnnc1CNc1cc(C)nc2c(C)c(C)nn12` here?
Answer: The Potency was inconclusive: 20 µM [inhibitor, partial curve, poor fit].

Question: `Fc1ccc(-c2nc(CSc3ncn[nH]3)co2)cc1` was tested. Which “activity change, negative = inhibition” value did it give?
Answer: The value was inactive: 7.65%.

Question: With `COc1ccc(-c2ccc(COc3ccc4c(cnn4CCC(=O)O)c3)cc2)c(C)c1` as the molecule, how does the Potency read?
Answer: The Potency was inconclusive: 56.2 µM [inhibitor, single point].

Question: Which “activity change, negative = inhibition” value does the source give for `COc1ccccc1C(=O)NC[C@@H]1C=C(C)[C@H](Cc2nc3ccncc3[nH]2)C[C@H]1C(C)C` here?
Answer: The value was inactive: -7.06% [at 86.2 µM].

Question: `CC(C)c1ccc(C(=O)N2CCc3[nH]nc(C(=O)NCCCc4ccccc4)c3C2)cc1` was tested. Which “activity change, negative = inhibition” value did it give?
Answer: The value was inactive: -3.21%.

Question: `COc1cc(OC)c(OC)cc1/C=C/C(=O)c1sc(-c2ccc(O)cc2)nc1C` was tested. Which Potency did it give?
Answer: The Potency was inconclusive: 20 µM [inhibitor, partial curve, poor fit].

Question: For `Cn1cc(-c2cnc3[nH]cc(CC(=O)Nc4ccc(C(F)(F)F)cc4)c3c2)cn1`, which Potency is on record?
Answer: The Potency was inconclusive: 44.7 µM [inhibitor, single point].

Question: Which “activity change, negative = inhibition” value does the source give for `COc1cc(C(=O)Nc2ccc3oc(=O)ccc3c2)ccc1C` here?
Answer: The value was inactive: -25.5%.

Question: How did the Potency turn out when `C=CCO[C@@H]1CCN2C(=O)c3cc(-c4cc(Cl)ccc4OC)ccc3NC(=O)[C@H]12` was run?
Answer: The Potency was inconclusive: 35.5 µM [inhibitor, partial curve, poor fit].

Question: `O[C@]1(c2ccccc2)CCN(Cc2ccncc2)C[C@H]1N1CCCC1` was tested. Which Potency did it give?
Answer: Its Potency is active: 6.31 µM.

Question: `CSc1ccc(-c2ccc3c(c2)C(=O)N2CCN(C(=O)CCC(=O)O)C[C@@H]2C(=O)N3)cc1` was tested. Which Potency did it give?
Answer: Its Potency is inconclusive: 28.2 µM [inhibitor, partial curve].

Question: How did the “activity change, negative = inhibition” value turn out when `Cc1ccsc1C(=O)N1CCCC1c1noc(COc2ccc(F)cc2)n1` (centres undefined) was run?
Answer: The value was inactive: 6.99%.

Question: How did the Potency turn out when `COc1ccc(OCC(=O)NCc2ccc3c(c2)CCN3C(=O)c2ccc(F)cc2)cc1` was run?
Answer: The Potency was inconclusive: 5.62 µM [inhibitor, partial curve, poor fit].

Question: How did the Potency turn out when `Cc1ccc(Cn2cccc2-c2nc(-c3ccc(F)cc3)no2)cc1` was run?
Answer: Its Potency is inconclusive: 35.5 µM [inhibitor, single point].

Question: How did the “activity change, negative = inhibition” value turn out when `COc1ccccc1-c1c(C)nn2c(SCC(=O)NCc3ccc(Cl)cc3)cc(C)nc12` was run?
Answer: The value was inactive: 10.3%.

Question: For `COc1ccc(Nc2ncc(-c3ccccc3OC)c3c2OCC3)cc1`, which Potency is on record?
Answer: The Potency was active: 35.5 µM.

Question: Which Potency does the source give for `CCCc1noc(-c2ccn3c(CNC(=O)c4cccc(N(C)C)c4)nnc3c2)n1` here?
Answer: The Potency was inconclusive: 39.8 µM [inhibitor, single point].

Question: With `COc1cccc(CNC(=O)Cn2c(N3CCOCC3)nc(C)cc2=O)c1` as the molecule, how does the “activity change, negative = inhibition” value read?
Answer: The value was inactive: -18.7%.

Question: How did the Potency turn out when `CCCC1(CO)CCCN(Cc2cn3ccc(C)cc3n2)C1` (centres undefined) was run?
Answer: The Potency was inconclusive: 28.2 µM [inhibitor, single point].

Question: Which Potency does the source give for `CCN(Cc1ccccc1)S(=O)(=O)c1cc(C(=O)Nc2cc(Cl)cc(Cl)c2)ccc1F` here?
Answer: Its Potency is inconclusive: 31.6 µM [inhibitor, partial curve, poor fit].

Question: How did the activity change, negative = inhibition turn out when `O=S(=O)(NCC(c1cccs1)S(=O)(=O)c1ccccc1)c1ccc(F)c(C(F)(F)F)c1` (centres undefined) was run?
Answer: Its activity change, negative = inhibition is inconclusive: -30.6% [inhibitor].

Question: For `CC(C)(C)C1CCc2c(sc(NC(=O)c3ccc(Cl)cc3)c2C(=O)NCc2ccco2)C1` (centres undefined), which Potency is on record?
Answer: The Potency was inconclusive: 3.98 µM [inhibitor, partial curve, poor fit].

Question: With `Cc1cccc(OC[C@H]2C[C@@H](NC(=O)c3cc(C)n(C)n3)[C@H](O)[C@@H]2O)n1` as the molecule, how does the Potency read?
Answer: Its Potency is inconclusive: 39.8 µM [inhibitor, partial curve, poor fit].

Question: `COc1ccc(C(=O)Nc2ccc(-c3noc([C@@H]4CCCN4Cc4ccco4)n3)cn2)cc1` was tested. Which Potency did it give?
Answer: The Potency was inconclusive: 31.6 µM [inhibitor, partial curve].

Question: Which Potency does the source give for `CC(C(=O)NCc1cccnc1N(C)CCc1ccccn1)n1cccc1` (centres undefined) here?
Answer: Its Potency is inconclusive: 28.2 µM [inhibitor, single point].

Question: How did the Potency turn out when `O=[N+]([O-])c1cccc(-c2noc([C@@H]3Cc4nc[nH]c4CN3Cc3cccs3)n2)c1` was run?
Answer: Its Potency is inconclusive: 28.2 µM [inhibitor, partial curve, poor fit].

Question: `C#CCOC(=O)c1cc(Cl)c(=O)n(Cc2ccc(Cl)cc2Cl)c1` was tested. Which “activity change, negative = inhibition” value did it give?
Answer: Its value is inactive: -2.33%.

Question: Which Potency does the source give for `COc1ccccc1-c1ncc(CNc2ncncn2)s1` here?
Answer: Its Potency is inconclusive: 25.1 µM [inhibitor, single point].

Question: `CCc1nnsc1C(=O)N(C)Cc1ccc(Cl)c(Cl)c1` was tested. Which “activity change, negative = inhibition” value did it give?
Answer: Its value is inactive: 7.05%.

Question: How did the Potency turn out when `CN(CC(=O)NCc1ccccc1)S(=O)(=O)c1ccc2[nH]c3c(c2c1)CCCC3` was run?
Answer: The Potency was inconclusive: 35.5 µM [inhibitor, single point].

Question: For `COc1ccc(S(=O)(=O)NC[C@H]2O[C@@H](CO)[C@@H](O)[C@H]2N2CCN(c3ccccn3)CC2)cc1`, which Potency is on record?
Answer: Its Potency is inconclusive: 25.1 µM [inhibitor, single point].

Question: With `CN(CC(=O)NC(C)(C)C)C(=O)/C=C/c1ccc(C#N)cc1` as the molecule, how does the “activity change, negative = inhibition” value read?
Answer: Its value is inactive: 14.9%.

Question: How did the “activity change, negative = inhibition” value turn out when `CC1=C[C@@H](CN2CCN(c3ccccn3)CC2)[C@H](C(C)C)C[C@H]1Cc1nnc(-c2ccc([N+](=O)[O-])cc2)o1` was run?
Answer: The value was inactive: 15.9%.

Question: How did the Potency turn out when `CS(=O)(=O)c1ccc(CN2C[C@@H]3OCC(=O)N(Cc4ccc(F)cc4)[C@@H]3C2)cc1` was run?
Answer: Its Potency is inconclusive: 35.5 µM [inhibitor, single point].

Question: With `Cc1ccccc1Nc1nc(-c2cc3ccccc3oc2=O)cs1` as the molecule, how does the Potency read?
Answer: Its Potency is inconclusive: 17.8 µM [inhibitor, partial curve, poor fit].

Question: For `COc1cc(/C=C(/C#N)c2ccc(Cl)cc2)cc(OC)c1OC`, which Potency is on record?
Answer: The Potency was inconclusive: 20 µM [inhibitor, single point].

Question: For `Cc1ccccc1N1Cc2c(NCC3CC3)ncnc2N(C)CC1=O`, which Potency is on record?
Answer: Its Potency is inconclusive: 25.1 µM [inhibitor, partial curve, poor fit].

Question: How did the activity change, negative = inhibition turn out when `Cc1cc(C)cc(Nc2cc(C(=O)NC3CCCCC3)c3ccccc3n2)c1` was run?
Answer: The activity change, negative = inhibition was inconclusive: -30.8% [inhibitor].

Question: How did the Potency turn out when `Cc1cc(-c2nn(-c3ccccc3F)cc2CN2CCCC(C#N)C2)c(C)s1` (centres undefined) was run?
Answer: Its Potency is inconclusive: 22.4 µM [inhibitor, single point].

Question: With `CCOc1cc(S(=O)(=O)N(CCO)CCO)ccc1Cl` as the molecule, how does the “activity change, negative = inhibition” value read?
Answer: Its value is inactive: -17.8%.

Question: How did the Potency turn out when `COc1cccc(NC(=O)c2ccc3c(c2)N(C)C2CCCCN2C3=O)c1` (centres undefined) was run?
Answer: Its Potency is inconclusive: 22.4 µM [inhibitor, partial curve, poor fit].

Question: How did the Potency turn out when `O=C1c2c(nc(CNCc3cccc(Cl)c3)n2Cc2ccccc2)NCCN1Cc1ccccc1` was run?
Answer: Its Potency is inconclusive: 39.8 µM [inhibitor, single point].

Question: `COc1ccc(CCNc2ncnc3c2c(-c2ccccc2)cn3-c2ccc(Cl)cc2)cc1OC` was tested. Which Potency did it give?
Answer: Its Potency is inconclusive: 0.794 µM [inhibitor, full curve, poor fit].

Question: `COc1ccc(OC)c(-c2cc3ccc(OCC#N)cc3oc2=O)c1` was tested. Which Potency did it give?
Answer: Its Potency is inconclusive: 25.1 µM [inhibitor, partial curve, poor fit].

Question: For `Cc1ccc(O)c(NC(=O)CCS(=O)(=O)c2nc(-c3cccs3)cc(C(F)(F)F)n2)c1`, which Potency is on record?
Answer: Its Potency is inconclusive: 31.6 µM [inhibitor, partial curve, poor fit].

Question: How did the Potency turn out when `Cc1cccc(-n2c(C)cc(C(=O)C(=O)Nc3nncs3)c2C)c1` was run?
Answer: The Potency was inconclusive: 28.2 µM [inhibitor, single point].

Question: With `Cc1ccc(C(C)C)c(OCC(=O)Nc2cc(-c3nc4ccccc4[nH]3)ccc2C)c1` as the molecule, how does the Potency read?
Answer: The Potency was inconclusive: 31.6 µM [inhibitor, partial curve, poor fit].

Question: For `C=CCC1(C(=O)O)CCCN(Cc2cc(Cl)ccc2OCC(=O)O)C1` (centres undefined), which Potency is on record?
Answer: The Potency was inconclusive: 11.2 µM [inhibitor, partial curve].

Question: `COc1ccc(N(CC(=O)Nc2cc(OC)cc(OC)c2)S(=O)(=O)c2c(C)noc2C)cc1` was tested. Which Potency did it give?
Answer: The Potency was inconclusive: 11.2 µM [inhibitor, partial curve, poor fit].
